# Data reported in the supplement of paper PMC7826260.
# This is one part of the list. Each Rep nickase domain was tested in vitro on the same pool of single strands (1 h at 37 °C, 3 µM enzyme); the outer parts of the 90-letter strands are left off. Values are log2 of uncut reads against the no-enzyme pool; more negative means more cut, near 0 not cut, and no call is made. Because reads are shares of a total, they shift together; where an enzyme cuts many sequences, the uncut ones exceed 0.
# How the values were obtained:
# Assay in all cases: uncleaved DNA left, log2 of reads against the no-enzyme library (log2 ratio); higher = less cleavage (more negative = more Rep cleavage of the k-mer); sequences stand for … in CTCGTCCG…ACCGGAGA
# [1] = test system: T1, Rep nickase domain of Muscovy duck circovirus
# T1 sequence (residues 1-111 of Rep, tag left off): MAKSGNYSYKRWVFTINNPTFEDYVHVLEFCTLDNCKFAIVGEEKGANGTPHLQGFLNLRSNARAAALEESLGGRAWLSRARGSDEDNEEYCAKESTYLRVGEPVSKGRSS
# Description: (§1)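 A pool of 90-nt single-stranded DNAs with seven random bases just before the constant AC of the nick site (name = the seven bases) was cut by 3 µM recombinant His6-SUMO-tagged Rep nickase domain (300 nM DNA, 50 mM HEPES pH 8.0, 50 mM NaCl, 1 mM MnCl2, 1 h, 37 °C, three replicates). Uncut DNA was amplified and sequenced.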
# [2] = test system: T2, Rep nickase domain of banana bunchy top virus
# T2 sequence (residues 1-94 of Rep, tag left off): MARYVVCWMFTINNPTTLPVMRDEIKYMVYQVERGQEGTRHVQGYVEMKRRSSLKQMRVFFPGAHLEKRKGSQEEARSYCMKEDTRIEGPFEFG
# Description: as §1
# [3] = test system: T3, Rep nickase domain of cabbage leaf curl virus
# T3 sequence (residues 1-116 of Rep, tag left off): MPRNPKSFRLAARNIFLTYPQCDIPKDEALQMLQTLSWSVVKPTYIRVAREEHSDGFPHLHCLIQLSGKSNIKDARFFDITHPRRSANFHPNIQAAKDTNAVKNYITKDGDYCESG
# Description: as §1
# [4] = test system: T4, Rep nickase domain of chickpea chlorotic dwarf virus
# T4 sequence (residues 1-124 of Rep, tag left off): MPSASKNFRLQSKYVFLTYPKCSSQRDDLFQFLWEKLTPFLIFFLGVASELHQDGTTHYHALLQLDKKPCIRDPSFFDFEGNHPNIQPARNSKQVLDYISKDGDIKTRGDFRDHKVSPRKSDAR
# Description: as §1
# [5] = test system: T5, Rep nickase domain of faba bean necrotic yellows virus
# T5 sequence (residues 1-98 of Rep, tag left off): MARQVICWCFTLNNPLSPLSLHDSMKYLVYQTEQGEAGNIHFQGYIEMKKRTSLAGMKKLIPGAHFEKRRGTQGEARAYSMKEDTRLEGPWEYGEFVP
# Description: as §1
# [6] = test system: T6, Rep nickase domain of maize striate mosaic virus
# T6 sequence (residues 1-117 of Rep, tag left off): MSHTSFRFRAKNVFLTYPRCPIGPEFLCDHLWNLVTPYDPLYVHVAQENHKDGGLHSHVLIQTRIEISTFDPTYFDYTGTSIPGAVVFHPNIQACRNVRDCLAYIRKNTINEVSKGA
# Description: as §1
# [7] = test system: T7, Rep nickase domain of porcine circovirus 2
# T7 sequence (residues 2-116 of Rep, tag left off): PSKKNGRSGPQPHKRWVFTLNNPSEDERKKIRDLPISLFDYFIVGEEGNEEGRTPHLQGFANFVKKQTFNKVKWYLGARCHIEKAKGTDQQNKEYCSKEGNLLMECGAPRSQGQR
# Description: as §1
# [8] = test system: T8, Rep nickase domain of tomato yellow leaf curl virus
# T8 sequence (residues 1-136 of Rep, tag left off): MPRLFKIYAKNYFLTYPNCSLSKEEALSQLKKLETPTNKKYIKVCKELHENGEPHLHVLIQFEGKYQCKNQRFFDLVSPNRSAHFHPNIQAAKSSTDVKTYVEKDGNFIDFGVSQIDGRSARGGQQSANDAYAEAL
# Description: as §1
# [9] = test system: T9, Rep nickase domain of wheat dwarf virus
# T9 sequence (residues 1-137 of Rep, tag left off): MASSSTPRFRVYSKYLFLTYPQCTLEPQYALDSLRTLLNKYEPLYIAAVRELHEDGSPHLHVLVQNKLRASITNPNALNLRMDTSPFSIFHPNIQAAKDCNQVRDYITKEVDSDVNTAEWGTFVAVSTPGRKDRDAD
# Description: as §1
Sequence,uncleaved DNA left (log2) [1],uncleaved DNA left (log2) [2],uncleaved DNA left (log2) [3],uncleaved DNA left (log2) [4],uncleaved DNA left (log2) [5],uncleaved DNA left (log2) [6],uncleaved DNA left (log2) [7],uncleaved DNA left (log2) [8],uncleaved DNA left (log2) [9]
ACCTGTC,-0.0527,-0.158,-0.342,-0.28,-0.0664,-0.828,-0.0105,-0.185,-0.214
ACGATGC,0.135,0.123,-0.479,-0.373,0.0851,-0.989,0.19,-0.0113,-0.0726
AGTGCAG,-0.0584,0.0402,-0.304,-0.04,0.012,-0.407,0.143,-0.0559,-0.0527
AACTAGT,-3.6,-2.78,-0.668,-1.92,-0.03,-1.03,-3.99,-0.0026,-0.127
TCGTATA,-0.0379,-0.0594,-0.119,-1.2,-0.0853,-0.42,-0.599,-0.0531,-0.163
GCTTTGA,0.0429,0.0161,0.045,0.443,-0.137,-0.191,0.131,-0.0336,0.0193
TAGGCAG,0.0305,-0.0175,-0.461,-0.439,0.0417,-0.902,0.139,0.0689,-0.0322
TGATCCT,-0.854,0.0607,0.245,-1.1,-0.0745,0.531,-0.669,0.0743,0.0781
TGGTCGA,0.127,0.0915,-0.134,-0.268,-0.0801,-0.726,0.134,0.0267,0.0712
TACACCC,0.0121,-0.0895,-0.00665,-1.33,0.103,-0.122,-0.197,-0.053,0.0403
CTCCGAC,-0.077,-0.111,0.000143,0.0953,-0.053,-0.471,-0.0459,-0.148,-0.051
ACATCCC,-0.125,-0.121,-0.251,0.155,-0.0698,-0.125,-0.0774,-0.153,-0.0536
GTGGGCA,0.0417,0.0409,0.867,1.86,0.154,2.31,0.241,0.0744,0.176
GCTATCT,0.0287,0.176,0.11,-0.793,-0.00198,0.00509,-0.167,0.0951,0.0888
ATCGGAT,0.0535,0.113,0.148,1.67,0.000302,1.94,0.231,-0.103,0.0457
GCTAACA,-0.0875,0.113,-0.201,-0.872,-0.164,0.147,-0.0504,0.102,0.0752
TAACTCA,0.0615,0.127,-1.54,-2.68,0.173,-0.701,-0.0423,0.138,-1.15
GCTAATC,0.0141,0.068,0.309,0.473,-0.0193,0.12,0.0778,0.0904,0.167
ACGTATG,0.0516,0.0831,-0.219,-0.109,0.101,-0.743,0.233,0.156,0.0684
CGCGGCG,0.0065,-0.0996,-0.763,-0.0776,-0.139,-0.604,0.0787,-0.0788,-0.0981
CTATGTT,-3.48,-0.791,-3.39,-2.61,-0.254,-2.38,-3.48,-0.00591,-2.37
AGGGCGG,0.0756,0.071,0.0511,0.554,0.0644,0.856,0.203,0.00865,-0.0269
TGTAGAT,-0.00729,0.0355,0.219,0.764,-0.0902,1.3,-0.075,-0.173,-0.0228
GGACATA,0.0781,0.123,0.983,2.09,0.0242,2.32,0.239,0.0946,0.24
TCGTAGC,-0.0419,-0.0987,-0.0513,-0.26,0.0902,-0.979,0.0971,0.0814,-0.0418
CCATATC,-0.0771,-0.0138,-0.203,-0.292,-0.148,-0.953,0.0107,-0.0408,-0.0224
GGAGGTT,0.0392,0.117,0.656,1.27,0.0568,2.03,0.0849,0.00724,0.136
ATAAGGA,-0.0118,0.0102,-0.181,0.218,0.061,-0.186,0.129,-0.00168,-0.000703
